Laboratory results from patent publication US20190284241A1 (Affibody, published 2019).
Changes are numbered by the printed parent chain. In names and notes the source's numbering stands.

B1: His6-tagged Z13578 (designed binder)
chain: MGSSHHHHHHLQVDAKYAKEWTDAAHEIRWLPNLTFDQRVAFIHKLRDDPSQSSELLSEAKKLNDSQAPKVD
B2: His6-tagged Z13592 (designed binder)
chain: B1 chain with W21V, T22D, D23I
B3: His6-tagged Z13621 (designed binder)
chain: B1 chain with W21A, T22D, D23A, A25G
B4: His6-tagged Z13654 (designed binder)
chain: B1 chain with W21L, T22E, D23A, A25K, R47D
B5: His6-tagged Z13663 (designed binder)
chain: B1 chain with T22Q, D23I
B6: His6-tagged Z13669 (designed binder)
chain: B1 chain with W21L, T22A, D23S, A25G
B7: His6-tagged Z13674 (designed binder)
chain: B1 chain with W21I, T22E, A25G
B8: His6-tagged Z13676 (designed binder)
chain: B1 chain with W21A, D23S, A25G, H44V
B9: His6-tagged Z18632 (designed binder)
chain: AEAKFAKEWTDAAHEIRWLPNLTFDQRVAFIHKLRDDPSQSSELLSEAKKLSESQAPK
notes: not shown: N-terminal His6 tag
B10: His6-tagged Z13583 (designed binder)
chain: B1 chain with W21L, T22E, D23K, A25G
B11: Z11948-(G4S)3-Z11948, His6-tagged (designed binder)
chain: AEAKYAKEQDAAAHEIRWLPNLTFDQRVAFIHKLADDPSQSSELLSEAKKLNDSQAPKGTGGGGSGGGGSGGGGSAEAKYAKEQDAAAHEIRWLPNLTFDQRVAFIHKLADDPSQSSELLSEAKKLNDSQAPKLEHHHHHH
B12: Z11948-(G4S)-Z11948, His6-tagged (designed binder)
chain: AEAKYAKEQDAAAHEIRWLPNLTFDQRVAFIHKLADDPSQSSELLSEAKKLNDSQAPKGTGGGGSPRAEAKYAKEQDAAAHEIRWLPNLTFDQRVAFIHKLADDPSQSSELLSEAKKLNDSQAPKLEHHHHHH
B13: His6-tagged Z11948 (designed binder)
chain: MGSSHHHHHHLQAEAKYAKEQDAAAHEIRWLPNLTFDQRVAFIHKLADDPSQSSELLSEAKKLNDSQAPK
notes: Original scaffold
B14: His6-tagged Z13616 (designed binder)
chain: B1 chain with T22Q, D23Q
B15: His6-tagged Z07918 (designed binder)
chain: B1 chain with W21Q, T22D, D23A, R47A
notes: Primary Z variant; also called His6-Z07918
B16: His6-tagged Z13577 (designed binder)
chain: B1 chain with T22H, D23Q
B17: His6-tagged Z13675 (designed binder)
chain: B1 chain with W21N, T22Q, D23A
B18: ZAZ3871 (designed binder)
chain: AEAKFAKEADAAGHEIRWLPNLTFDQRVAFIHKLRDDPSQSSELLSEAKKLSESQAPKASGSLAEAKEAANAELDSYGVSDFYKRLIDKAKTVEGVEALKDAILAALPGTGGGGSAEAKFAKEADAAGHEIRWLPNLTFDQRVAFIHKLRDDPSQSSELLSEAKKLSESQAPK
notes: also called Z18634-ASGS-PP013-GT-(G4S)-Z18634
B19: ZAZ3824 (designed binder)
chain: B18 chain with F5Y, S52N, E53D, F120Y, S167N, E168D
notes: also called Z17303-ASGS-PP013-GT-(G4S)-Z17303
B20: ZAZ3869 (designed binder)
chain: B18 chain with A9W, D10T, A11D, G13A, A124W, D125T, A126D, G128A
notes: also called Z18632-ASGS-PP013-GT-(G4S)-Z18632
B21: ZAZ3870 (designed binder)
chain: B18 chain with A9W, D10Q, A11Q, G13A, A124W, D125Q, A126Q, G128A
notes: also called Z18633-ASGS-PP013-GT-(G4S)-Z18633
B22: ZZ3556 (designed binder)
chain: GSSHHHHHHLQAEAKYAKEADAAGHEIRWLPNLTFDQRVAFIHKLRDDPSQSSELLSEAKKLNDSQAPKGTGGGGSGGGGSGGGGSAEAKYAKEADAAGHEIRWLPNLTFDQRVAFIHKLRDDPSQSSELLSEAKKLNDSQAPK
notes: Dimer of Z17303 without PP013, N-terminal His6 tag; also called GSS-His6-LQ-Z17303-GT(G4S)3-Z17303
B23: ZAZ3715 (designed binder)
chain: AEAKYAKEADAAGHEIRWLPNLTFDQRVAFIHKLRDDPSQSSELLSEAKKLNDSQAPKGAPGGGGSGGGGSGGGGSTSLAEAKEAANAELDSYGVSDFYKRLIDKAKTVEGVEALKDAILAALPGTGGGGSGGGGSGGGGSPRAEAKYAKEADAAGHEIRWLPNLTFDQRVAFIHKLRDDPSQSSELLSEAKKLNDSQAPK
notes: also called Z17303-GAP(G4S)3TS-PP013-GT(G4S)3PR-Z17303
B24: ZZA3716 (designed binder)
chain: AEAKYAKEADAAGHEIRWLPNLTFDQRVAFIHKLRDDPSQSSELLSEAKKLNDSQAPKGAPGGGGSGGGGSGGGGSTSAEAKYAKEADAAGHEIRWLPNLTFDQRVAFIHKLRDDPSQSSELLSEAKKLNDSQAPKGTGGGGSGGGGSGGGGSPRLAEAKEAANAELDSYGVSDFYKRLIDKAKTVEGVEALKDAILAALP
notes: also called Z17303-GAP(G4S)3TS-Z17303-GT(G4S)3PR-PP013
B25: His6-tagged Z18632 (designed binder)
chain: B9 chain
notes: Y5F, N52S, D53E and N-terminal AE; not shown: N-terminal His6-tag
B26: His6-tagged Z18634 (designed binder)
chain: B9 chain with W9A, T10D, D11A, A13G
notes: as for B25
B27: His6-tagged Z18634 (designed binder)
chain: B9 chain with W9A, T10D, D11A, A13G
notes: as for B9

target: T1, human FcRn (Biorbyt, cat. no. orb84388) (human, UniProt P55899 24-297; P61769 21-119, limits assumed); assay: SPR Biacore, hFcRn immobilised, pH 6.0
T1 construct: Bought soluble protein; not biotinylated on Biacore chips and ELISA coat; also called hFcRn

Point of comparison: B2, Kd 12 nM. Against it:
- B1 — 1.5-fold higher, 18 nM
- B3 — 1.8-fold lower, 6.8 nM
- B4 — within 1.5-fold, 16 nM
- B5 — within 1.5-fold, 8.7 nM
- B6 — 2.4-fold lower, 4.9 nM
- B7 — 1.7-fold lower, 7 nM
- B8 — 2.2-fold lower, 5.5 nM

Point of comparison: B6, koff 0.0028 s⁻¹. Against it:
- B1 — 2.6-fold higher, 0.0073 s⁻¹
- B2 — 2.6-fold higher, 0.0072 s⁻¹
- B4 — 3.4-fold higher, 0.0095 s⁻¹
- B7 — within 1.5-fold, 0.0037 s⁻¹

Point of comparison: B7, kon 530000 M⁻¹ s⁻¹. Against it:
- B1 — within 1.5-fold, 410000 M⁻¹ s⁻¹
- B2 — within 1.5-fold, 590000 M⁻¹ s⁻¹
- B4 — within 1.5-fold, 600000 M⁻¹ s⁻¹
- B6 — within 1.5-fold, 560000 M⁻¹ s⁻¹

target: T2, cynomolgus FcRn (Biorbyt, cat. no. orb99075) (cynomolgus, UniProt Q8SPV9 24-297; Q8SPW0 21-119, limits assumed); assay: Biacore, cFcRn immobilized (1098 RU), 90 nM His6-tagged Z variant, pH 6.0
T2 construct: Bought protein, immobilised on a CM5 chip; also called cFcRn

B9: binds.

target: T3, human FcRn-eGFP on transduced HeLa cells (human, UniProt P55899 24-365; P16213 21-119); assay: flow cytometry, hFcRn-eGFP HeLa cells, blocks Alexa647-hIgG, pH 6.0
T3 construct: Fixed, saponin-permeabilised HeLa cells; also called hFcRn-eGFP; hFcRn; not shown: eGFP at the cytoplasmic tail

Point of comparison: B11, IC50 4.5 nM. Against it:
- B10 — 7.3-fold higher, 33 nM
- B3 — 3.8-fold higher, 17 nM
- B12 — within 1.5-fold, 3.5 nM

target: T1, human FcRn (Biorbyt, cat. no. orb84388); assay: SPR Biacore, hFcRn immobilised; sample before the stability test (0)
Description: (§1) The His₆-tagged Z variants were further assessed in terms of preserved binding capacity to FcRn after introduction of alterations in the scaffold, as well as after having been subjected to the stability test, i.e. incubated at 37° C. for 2 weeks. Comparative kinetic constants (kₒₙ and koff) and affinities (KD) were determined using a Biacore 2000 instrument. The target protein human FcRn (Biorbyt, cat. no. orb 84388) was immobilized on the carboxylated dextran layer surface of a CM5 chip (GE Healthcare). The immobilization was performed using amine coupling chemistry according to the manufacturer's protocol and using HBS-EP as running buffer. One flow cell surface on the chip was activated and deactivated for use as blank during analyte injections. The immobilization level of hFcRn on the surface was approximately 750 RU. […] Regeneration by three pulses of HBS-EP followed by 10 min equilibration in running buffer was applied after each analyte injection. Kinetic constants were calculated from the sensorgrams using the Langmuir 1:1 model of the BiaEvaluation software 4.1 (GE Healthcare). Curves of the blank surface were subtracted from the curves of the ligand surfaces and the data from the buffer cycles were subtracted from the data of the test-sample cycles to correct for any drift in signal.

T1 sequence (P55899 24-297 limits assumed, chain 1 of 2): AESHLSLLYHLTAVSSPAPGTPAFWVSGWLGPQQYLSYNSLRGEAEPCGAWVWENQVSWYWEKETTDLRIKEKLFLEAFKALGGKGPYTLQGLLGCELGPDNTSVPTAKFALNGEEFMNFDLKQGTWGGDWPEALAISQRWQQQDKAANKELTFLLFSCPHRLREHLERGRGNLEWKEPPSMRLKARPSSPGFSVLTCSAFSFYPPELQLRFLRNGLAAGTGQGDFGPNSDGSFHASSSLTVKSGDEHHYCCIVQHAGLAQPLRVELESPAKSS
T1 sequence (P61769 21-119 limits assumed, chain 2 of 2, further chain): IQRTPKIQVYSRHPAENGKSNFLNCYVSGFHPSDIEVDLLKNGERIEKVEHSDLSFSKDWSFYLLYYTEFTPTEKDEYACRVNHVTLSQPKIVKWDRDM

With B13 the Kd was 2.9 nM.

In the case of B13, the koff is reported as 0.00456 s⁻¹.

For B13, the kon was 1.6e+06 M⁻¹ s⁻¹.

target: T4, cynomolgus FcRn (Biorbyt, cat. no. orb99075) (cynomolgus, UniProt Q8SPV9 24-297; Q8SPW0 21-119, limits assumed); assay: SPR Biacore, cFcRn immobilised, pH 6.0
T4 construct: also called cFcRn

Point of comparison: B15, Kd 19 nM. Against it:
- B14 — 1.7-fold lower, 11 nM
- B16 — 3.5-fold lower, 5.4 nM
- B1 — within 1.5-fold, 21 nM
- B10 — 2.9-fold lower, 6.6 nM
- B2 — within 1.5-fold, 15 nM
- B3 — 2.5-fold lower, 7.6 nM
- B4 — within 1.5-fold, 15 nM
- B5 — 1.9-fold lower, 10 nM
- B6 — 3.4-fold lower, 5.6 nM
- B7 — 2.7-fold lower, 7.1 nM
- B17 — 1.7-fold lower, 11 nM
- B8 — 3.1-fold lower, 6.2 nM

Point of comparison: B7, koff 0.0059 s⁻¹. Against it:
- B1 — 1.9-fold higher, 0.011 s⁻¹
- B2 — 1.9-fold higher, 0.011 s⁻¹
- B4 — 2.2-fold higher, 0.013 s⁻¹
- B6 — within 1.5-fold, 0.0046 s⁻¹

Point of comparison: B6, kon 820000 M⁻¹ s⁻¹. Against it:
- B1 — within 1.5-fold, 560000 M⁻¹ s⁻¹
- B2 — within 1.5-fold, 750000 M⁻¹ s⁻¹
- B4 — within 1.5-fold, 840000 M⁻¹ s⁻¹
- B7 — within 1.5-fold, 830000 M⁻¹ s⁻¹

target: T1, human FcRn (Biorbyt, cat. no. orb84388); assay: ELISA, hFcRn coated, pH 7.4

Point of comparison: B19, EC50 0.091 nM. Against it:
- B18 — 2-fold higher, 0.18 nM
- B20 — 8-fold higher, 0.73 nM
- B21 — 6.3-fold higher, 0.57 nM

target: T1, human FcRn (Biorbyt, cat. no. orb84388); assay: AlphaLISA, blocks IgG beads binding biotin-hFcRn, pH 6.0

Point of comparison: B23, IC50 0.17 nM. Against it:
- B22 — within 1.5-fold, 0.19 nM
- B24 — within 1.5-fold, 0.18 nM

target: T3, human FcRn-eGFP on transduced HeLa cells; assay: flow cytometry, hFcRn-eGFP HeLa cells, blocks Alexa647-hIgG, pH 6.0; remark: another data set of the same source
T3 sequence (P55899 24-365, chain 1 of 2): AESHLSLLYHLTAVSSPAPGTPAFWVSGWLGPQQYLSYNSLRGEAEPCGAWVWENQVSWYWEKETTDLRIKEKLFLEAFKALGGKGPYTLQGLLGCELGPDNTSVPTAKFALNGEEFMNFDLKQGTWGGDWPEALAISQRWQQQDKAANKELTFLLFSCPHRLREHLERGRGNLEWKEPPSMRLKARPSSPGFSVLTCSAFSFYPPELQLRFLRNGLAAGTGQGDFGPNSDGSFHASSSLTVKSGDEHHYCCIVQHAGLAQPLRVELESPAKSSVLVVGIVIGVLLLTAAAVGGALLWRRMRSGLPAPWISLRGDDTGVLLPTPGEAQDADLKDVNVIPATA
T3 sequence (P16213 21-119, chain 2 of 2, further chain): as the sequence (P61769 21-119 limits assumed, chain 2 of 2, further chain) above

Point of comparison: B26, IC50 36 nM. Against it:
- B3 — 1.6-fold lower, 22 nM
- B18 — 8.8-fold lower, 4.1 nM
- B19 — 9.5-fold lower, 3.8 nM
- B20 — 7.7-fold lower, 4.7 nM
- B21 — 6.8-fold lower, 5.3 nM
- B22 — 19-fold lower, 1.9 nM
- B23 — 10-fold lower, 3.6 nM
- B24 — 10-fold lower, 3.5 nM
- B25 — 2.3-fold higher, 84 nM

target: T2, cynomolgus FcRn (Biorbyt, cat. no. …); assay: Biacore, cFcRn immobilized (1098 RU), 90 nM His6-tagged Z variant, pH 6.0; remark: another data set of the same source

B27: binds.

target: T1, human FcRn (Biorbyt, cat. no. orb84388); assay: ELISA, hFcRn coated, pH 6.0

Point of comparison: B19, EC50 0.099 nM. Against it:
- B18 — within 1.5-fold, 0.14 nM
- B20 — 3-fold higher, 0.3 nM
- B21 — 2.6-fold higher, 0.26 nM

target: T1, human FcRn (Biorbyt, cat. no. orb84388); assay: SPR Biacore, hFcRn immobilised; sample after 2 weeks at 37 °C (2 w)
Description: as §1

Work on B13 yielded a Kd of 1.8 nM.

In the case of B13, the koff is reported as 0.00575 s⁻¹.

B13 was tested, and the kon was 3.15e+06 M⁻¹ s⁻¹.
